Experimental data taken from EP4628104A1, “ANTI-CLDN18.2 ANTIBODY-DRUG CONJUGATE, AND PHARMACEUTICAL COMPOSITION THEREOF AND USE THEREOF” (priority 2022, dated 2024).

Legend:
[1] = test system: NIH-3T3-CLDN18.1 cells; assay: Non-specific killing of CLDN18.2-negative cells; assay type: cell-based, Mouse; conditions: up to 20 nM, 96 h; ADCs of Example 5
Protocol: To detect the non-specific killing effect of the anti-CLDN18.2 antibody-drug conjugates prepared in Example 5 on CLDN18.2-negative cells, the killing activity detection was performed using CLDN18.1-overexpressing NIH-3T3.
cDNA encoding human CLDN18.1 (SEQ ID NO: 66) was obtained by gene synthesis and then subcloned into an expression vector pcDNA3.1. The expression vector was transfected into NIH-3T3 cells according to the instructions of the Lipofectamine 2000 transfection reagent (Thermo, Cat. No. 11668019) to obtain CLDN18.1-overexpressing NIH-3T3 -CLDN18.1.
NIH-3T3-CLDN18.1 cells in the logarithmic growth phase were taken, adjusted to a cell density of 1 × 10^4 cells/mL, and added to a 96-well plate at 100 µL/well. The cells were placed in an incubator at 37 °C with 5% CO2 for adherence culture overnight. The anti-CLDN18.2 antibody-drug conjugate was prepared with a DMEM medium containing 10% FBS. Cells subjected to overnight adherence culture were taken out. […] Then, 180 µL of the solution was pipetted from each well and transferred to an opaque white plate, bubbles were removed, the chemiluminescence value was read, and the viability of the cells was calculated. Viability(%) = (Luminescence value of the experimental group)/(Luminescence value of the control group) × 100% [formula]
Data were analyzed using Graphpad Prism 5.

[2] = test system: NUGC-4 human gastric cancer cells; assay: Pharmacodynamic evaluation in mouse xenograft tumor model of NUGC-4 human gastric cancer; assay type: in vivo, CB-17 SCID mice; conditions: NUGC-4 xenograft
Protocol: NUGC-4 human gastric cancer cells were subcutaneously inoculated in the right axilla of SPF-grade female CB-17 SCID mice (source: Shanghai Lingchang Biotech Co., Ltd.) at 5 × 10^6/mouse. When the mean tumor volume reached about 150 mm^3, the animals were divided into 3 groups of 6 animals each, with the specific groups and doses shown in Table 7. Both hz28G3-1.3-DDDXd and 15F9-DDDXd were prepared in Example 3. After the determination of the DAR value according to Example 4, the DAR value of hz28G3-1.3-DDDXd was 7.4, and the DAR value of 15F9-DDDXd was 7.7. Table 7. Groups and doses
The day of grouping was day 0, and the tail vein administration was performed once on day 2 after grouping. The tumor volume was measured 2-3 times a week, and meanwhile, the mice were weighed and the data were recorded. The general behavior of the mice was observed and recorded every day. After the experiment was completed, the tumors were removed, weighed, and photographed.
(§1) The detection indexes and the calculation formulas are as follows: • Tumor volume TV (mm^3) = 1/2 × (a × b^2), where a represents the long diameter of the tumor, and b represents the short diameter of the tumor; • Relative tumor volume RTV = TVt/TV0, where TV0 represents the tumor volume on day 0, and TVt represents the tumor volume at each measurement; • Relative tumor proliferation rate T/C (%) = (TRTV/CRTV) × 100%, where TRTV represents RTV of the treatment group, and CRTV represents RTV of the vehicle control group; • Tumor growth inhibition rate TGI (%) = (1 - TW/TW0) × 100%; where TW represents the tumor weight of the treatment group, and TW0 represents the tumor weight of the vehicle control group; • Weight change rate WCR (%) = (Wtt - Wt0)/Wt0 × 100%, where Wt0 represents the body weight of the mouse on day 0, and Wtt represents the body weight of the mouse at each measurement.

[3] = test system: CLDN18.2 highly-expressing BxPC-3 human pancreatic cancer; assay: Pharmacodynamic evaluation in mouse xenograft tumor model of BxPC-3 human pancreatic cancer; assay type: in vivo, CB-17 SCID mice; conditions: BxPC-3 xenograft
Protocol: CLDN18.2 highly-expressing BxPC-3 human pancreatic cancer tumor blocks were subcutaneously inoculated by block implantation into the right axilla of SPF-grade female CB-17 SCID mice (source: Shanghai Slac Laboratory Animal Co., Ltd.). When the mean tumor volume reached about 200 mm^3, the animals were divided into 3 groups of 4 animals each, with the specific groups and doses shown in Table 9. Both hz28G3-1.3-DDDXd and 15F9-DDDXd were prepared in Example 3. After the determination of the DAR value according to Example 4, the DAR value of hz28G3-1.3-DDDXd was 7.4, and the DAR value of 15F9-DDDXd was 7.7. Table 9. Groups and doses
The day of grouping was day 0, and the tail vein administration was performed once on the day of grouping. The tumor volume was measured 2-3 times a week, and meanwhile, the mice were weighed and the data were recorded. The general behavior of the mice was observed and recorded every day. After the experiment was completed, the tumors were removed, weighed, and photographed.
as §1, with “and TWo” for “and TW0”, “100%, wherein Wto is” for “100%, where Wt0 represents”, “the animal” for “the mouse”, “Wtt is” for “Wtt represents”

[4] = 10 mg/kg tail vein once on day 2, day 33
[5] = 5 mg/kg tail vein once on day 0, day 21

B1: hz28G3-1.3-DDDXd: anti-CLDN18.2 antibody hz28G3-1.3 conjugated with compound H (MC-GGFG-DDDXd); DAR 7.4 (Example 3), 7.6 (Example 5), 7.93 (Example 16) (conjugate)
heavy: QVQLVQSGAEVKKPGASVKVSCKTSGYSFTDYLMLWVRQAHGQSLEWMGNINPYYGRTTYALKFKGRVTMTVDRSTSTVYMELSSLRSEDTAVYYCARDGYSLRNAMDYWGQGTLVTVSS[human IgG1 constant region left out here]
light: DIVMTQSPDSLAVSLGERATINCKSSQSLFNSGNQKNYLAWYQQKPGQPPKLLIYGASTRESGVPDRFSGSGSGTDFTLTISSLQAEDVAVYYCQNAHSYPYTFGQGTKVEIKRTVAAPSVFIFPPSDEQLKSGTASVVCLLNNFYPREAKVQWKVDNALQSGNSQESVTEQDSKDSTYSLSSTLTLSKADYEKHKVYACEVTHQGLSSPVTKSFNRGEC
- killing activity against NIH-3T3-CLDN18.1 cells [1]: no killing activity
- toxicity ([2]; 10 mg/kg): no significant toxicity
- RTV (mean±SD) [2, 4]: 1.5±0.6
- TV (mean±SD) [2, 4]: 260±131 mm^3
- Weight change rate (mean ± SD) [2, 4]: 11.1±2.7%
- TGI ([2]; 10 mg/kg tail vein once on day 2, day 33, from tumor weight): 86.7%
- T/C ([2]; 10 mg/kg tail vein once on day 2, day 33, relative tumor proliferation rate): 14.7%
- toxicity ([3]; 5 mg/kg): no significant toxicity
- RTV (mean±SD) [3, 5]: 2.7±1.1
- TV (mean±SD) [3, 5]: 694±572 mm3
- Weight change rate (mean ± SD) [3, 5]: 4.8±5.2%
- TGI ([3]; 5 mg/kg tail vein once on day 0, day 21, from tumor weight): 69.7%
- T/C ([3]; 5 mg/kg tail vein once on day 0, day 21, relative tumor proliferation rate): 33.8%
